Results from paper PMC4771807.
These are yes or no findings as the source states them, for the method shown. In cells and extracts the contact can be indirect. Some results given as binding are weak or reduced against the parent protein; the word gives no strength. Sequences can lack the tags named with a protein.

Amino acid sequences for entries named in this document (tags omitted). A change or cut given only in a name is not applied to a line headed by its entry. Chains listed by the source or under a name are the forms on record and can include a tag or linker. Residues count along the entry.
long signaling form of the leptin receptor (LRb) (mouse (endogenous in brain)) (P48356, residues 22-1162): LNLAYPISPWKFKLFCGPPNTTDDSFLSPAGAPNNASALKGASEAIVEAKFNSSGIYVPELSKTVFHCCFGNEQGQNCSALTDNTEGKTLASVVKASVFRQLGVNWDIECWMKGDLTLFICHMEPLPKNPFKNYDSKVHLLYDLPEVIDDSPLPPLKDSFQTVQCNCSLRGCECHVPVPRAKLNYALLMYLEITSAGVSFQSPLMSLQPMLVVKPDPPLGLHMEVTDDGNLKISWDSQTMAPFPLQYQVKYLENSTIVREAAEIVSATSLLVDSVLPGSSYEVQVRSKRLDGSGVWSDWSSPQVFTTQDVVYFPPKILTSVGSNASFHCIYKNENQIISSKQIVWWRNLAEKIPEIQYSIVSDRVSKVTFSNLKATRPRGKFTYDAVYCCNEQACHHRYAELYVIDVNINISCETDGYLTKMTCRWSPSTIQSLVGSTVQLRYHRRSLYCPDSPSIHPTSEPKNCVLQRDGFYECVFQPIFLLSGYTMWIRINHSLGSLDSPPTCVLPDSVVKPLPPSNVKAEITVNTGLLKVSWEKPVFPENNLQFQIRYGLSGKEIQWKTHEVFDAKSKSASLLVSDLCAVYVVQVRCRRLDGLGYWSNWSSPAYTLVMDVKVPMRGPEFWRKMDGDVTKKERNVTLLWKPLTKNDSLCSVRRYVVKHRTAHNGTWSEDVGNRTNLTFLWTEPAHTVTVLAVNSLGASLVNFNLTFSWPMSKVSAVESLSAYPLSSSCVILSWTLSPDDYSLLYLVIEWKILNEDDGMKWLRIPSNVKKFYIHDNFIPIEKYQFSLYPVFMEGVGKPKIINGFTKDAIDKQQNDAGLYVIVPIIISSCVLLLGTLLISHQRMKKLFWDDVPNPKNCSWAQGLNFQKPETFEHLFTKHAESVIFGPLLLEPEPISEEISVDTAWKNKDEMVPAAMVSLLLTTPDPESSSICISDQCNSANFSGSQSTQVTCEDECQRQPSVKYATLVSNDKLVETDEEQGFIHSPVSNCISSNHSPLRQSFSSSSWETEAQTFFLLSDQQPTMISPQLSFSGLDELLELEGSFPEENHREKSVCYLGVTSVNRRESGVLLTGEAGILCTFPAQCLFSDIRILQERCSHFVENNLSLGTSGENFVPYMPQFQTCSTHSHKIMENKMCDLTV
LRa (P48356-2, form named): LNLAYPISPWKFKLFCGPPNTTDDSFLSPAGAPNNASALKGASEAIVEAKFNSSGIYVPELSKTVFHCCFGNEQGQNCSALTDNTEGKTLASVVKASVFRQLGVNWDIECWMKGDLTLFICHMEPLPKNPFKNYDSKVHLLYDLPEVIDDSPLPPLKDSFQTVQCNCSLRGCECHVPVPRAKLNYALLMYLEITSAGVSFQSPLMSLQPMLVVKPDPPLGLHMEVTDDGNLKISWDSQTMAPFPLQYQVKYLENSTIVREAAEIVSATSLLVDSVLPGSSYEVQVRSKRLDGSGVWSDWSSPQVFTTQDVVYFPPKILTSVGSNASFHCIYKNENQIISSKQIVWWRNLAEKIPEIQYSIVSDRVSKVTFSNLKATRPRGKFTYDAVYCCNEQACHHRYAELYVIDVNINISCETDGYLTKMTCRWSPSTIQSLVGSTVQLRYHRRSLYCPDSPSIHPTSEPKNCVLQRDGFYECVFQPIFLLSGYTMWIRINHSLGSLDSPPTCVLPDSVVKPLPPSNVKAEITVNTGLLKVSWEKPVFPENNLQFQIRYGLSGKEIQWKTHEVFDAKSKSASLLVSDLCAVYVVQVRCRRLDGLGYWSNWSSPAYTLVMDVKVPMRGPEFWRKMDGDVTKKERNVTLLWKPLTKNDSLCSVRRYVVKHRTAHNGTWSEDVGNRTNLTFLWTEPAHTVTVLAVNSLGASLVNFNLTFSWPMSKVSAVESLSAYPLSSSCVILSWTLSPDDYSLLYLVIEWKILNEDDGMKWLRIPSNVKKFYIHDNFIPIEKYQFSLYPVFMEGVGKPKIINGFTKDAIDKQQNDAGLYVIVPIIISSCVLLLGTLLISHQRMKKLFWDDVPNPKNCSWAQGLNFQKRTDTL

B1: Flag- and S-tagged human BBS1 (protein, UniProt Q8NFJ9 1-593)
chain: MAAASSSDSDACGAESNEANSKWLDAHYDPMANIHTFSACLALADLHGDGEYKLVVGDLGPGGQQPRLKVLKGPLVMTESPLPALPAAAATFLMEQHEPRTPALALASGPCVYVYKNLRPYFKFSLPQLPPNPLEQDLWNQAKEDRIDPLTLKEMLESIRETAEEPLSIQSLRFLQLELSEMEAFVNQHKSNSIKRQTVITTMTTLKKNLADEDAVSCLVLGTENKELLVLDPEAFTILAKMSLPSVPVFLEVSGQFDVEFRLAAACRNGNIYILRRDSKHPKYCIELSAQPVGLIRVHKVLVVGSTQDSLHGFTHKGKKLWTVQMPAAILTMNLLEQHSRGLQAVMAGLANGEVRIYRDKALLNVIHTPDAVTSLCFGRYGREDNTLIMTTRGGGLIIKILKRTAVFVEGGSEVGPPPAQAMKLNVPRKTRLYVDQTLREREAGTAMHRAFQTDLYLLRLRAARAYLQALESSLSPLSTTAREPLKLHAVVQGLGPTFKLTLHLQNTSTTRPVLGLLVCFLYNEALYSLPRAFFKVPLLVPGLNYPLETFVESLSNKGISDIIKVLVLREGQSAPLLSAHVNMPGSEGLAAA

Key:
[1] = molecular target: T1, Flag- and S-tagged human BBS1 (human) (UniProt Q8NFJ9); test: co-IP; whole brain lysate (800 μg protein) of transgenic mice expressing Flag-BBS1; immunoprecipitation with an anti-LR antibody (recognizes LRb and LRa), blots with M2 anti-Flag and anti-LR; reciprocal by the legend
T1 sequence: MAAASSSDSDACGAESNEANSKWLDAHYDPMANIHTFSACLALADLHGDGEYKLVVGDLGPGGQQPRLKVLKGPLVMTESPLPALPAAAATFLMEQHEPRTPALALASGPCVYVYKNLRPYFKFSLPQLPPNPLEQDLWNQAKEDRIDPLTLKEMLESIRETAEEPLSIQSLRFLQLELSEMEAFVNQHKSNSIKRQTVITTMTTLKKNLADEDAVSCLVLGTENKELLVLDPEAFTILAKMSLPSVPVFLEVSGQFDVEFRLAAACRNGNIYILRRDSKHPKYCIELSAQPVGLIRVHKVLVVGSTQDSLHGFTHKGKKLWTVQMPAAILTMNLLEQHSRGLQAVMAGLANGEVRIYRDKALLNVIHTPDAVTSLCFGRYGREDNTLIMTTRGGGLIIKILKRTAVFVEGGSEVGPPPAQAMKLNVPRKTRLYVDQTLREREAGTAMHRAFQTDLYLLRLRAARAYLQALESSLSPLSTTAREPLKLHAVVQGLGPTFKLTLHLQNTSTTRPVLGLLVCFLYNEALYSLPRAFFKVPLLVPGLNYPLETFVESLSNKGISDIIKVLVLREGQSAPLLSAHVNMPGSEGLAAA

[2] = molecular target: T1, Flag- and S-tagged human BBS1 (human); test: co-IP; pooled cortex lysates from 3 transgenic mice expressing Flag-BBS1; reciprocal immunoprecipitation
[3] = molecular target: T1, Flag- and S-tagged human BBS1 (human); test: co-IP; pooled hypothalamic lysates from 3 transgenic mice expressing Flag-BBS1; reciprocal immunoprecipitation
[4] = molecular target: long signaling form of the leptin receptor (LRb) (mouse (endogenous in brain)) (UniProt P48356); test: co-IP; pooled cortex lysates from 3 transgenic mice expressing Flag-BBS1; reciprocal immunoprecipitation
[5] = molecular target: long signaling form of the leptin receptor (LRb) (mouse (endogenous in brain)) (UniProt P48356); test: co-IP; pooled hypothalamic lysates from 3 transgenic mice expressing Flag-BBS1; reciprocal immunoprecipitation
[6] = molecular target: long signaling form of the leptin receptor (LRb) (mouse (endogenous in brain)) (UniProt P48356); test: co-IP; whole brain lysate (800 μg protein) of transgenic mice expressing Flag-BBS1; immunoprecipitation with an anti-LR antibody (recognizes LRb and LRa), blots with M2 anti-Flag and anti-LR; reciprocal by the legend

| Molecule | binding [1] | binding [2] | binding [3] | binding [4] | binding [5] | binding [6] |
| --- | --- | --- | --- | --- | --- | --- |
| LRa (from UniProt P48356-2 22-894) (receptor) | no binding |  |  |  |  |  |
| long signaling form of the leptin receptor (LRb) (from UniProt P48356 22-1162) | binds | no binding (condition: in cortex lysates) | binds |  |  |  |
| B1 |  |  |  | no binding (condition: in cortex lysates) | binds | binds |
